Values quoted from earlier work in patent EP0396251A2, “Use of fatty acids for the treatment of diseases associated with cytokines” (NATIONAL UNIVERSITY OF SINGAPORE, priority 1989, dated 1990).
Where two headings read alike, the source gives them in different places.

Tested on: interferon-induced antiviral state
Settings: 10µM, cited from earlier work

Row | SMILES | effect on interferon action | effect on interferon action (Pottathil et al., disputed by other groups)
1 | CCCCC1C(=O)N(c2ccccc2)N(c2ccc(O)cc2)C1=O (centres unmarked) [Oxyphenylbutazone] | inhibit interferon action | –
2 | COc1ccc2c(c1)c(CC(=O)O)c(C)n2C(=O)c1ccc(Cl)cc1 [Indomethacin] | – | inhibit interferon action
